# Measured values as given in article PMC12820563.
# The list shows a part of the results. The list includes weakly bound sequences.
# Target: T1, MBP-FoxP3dN (UniProt Q99JB6)
# T1 sequence: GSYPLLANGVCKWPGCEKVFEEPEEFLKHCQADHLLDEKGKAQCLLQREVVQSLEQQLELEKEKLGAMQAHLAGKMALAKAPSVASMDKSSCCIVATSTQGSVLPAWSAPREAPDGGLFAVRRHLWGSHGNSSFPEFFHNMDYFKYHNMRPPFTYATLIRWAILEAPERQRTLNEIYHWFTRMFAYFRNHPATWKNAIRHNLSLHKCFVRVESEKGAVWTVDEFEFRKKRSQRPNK
# Assay: PD-seq (MBP pull-down with sequencing)
# Settings: 20 mM Tris-HCl pH 7.5, 100 mM NaCl, 1.5 mM MgCl2, 0.4 uM protein, 0.1 uM dsDNA library, 30 min, room temperature, amylose pull-down; high values mean tight binding; double strand, one strand shown
row,Sequence,binding signal (RPM ratio (pull-down/input))
1,GATGATTGTTCTCCCAGCTGATGAATTCAACTATTCGAGTAAACAAATTTTCCTAATCTTTCTGTTCAAGCGCCATCTAC,0.418
2,GATGATTGTTCTCCCAGCTGATGAATTAGAGCGATCGAGTAAACAAATTTTCCTAATCTTTCTGTTCAAGCGCCATCTAC,0.488
3,GATGATTGTTCTCCCAGCTGATGAATTCTAGTTGTCGAGTAAACAAATTTTCCTAATCTTTCTGTTCAAGCGCCATCTAC,1.26
4,GATGATTGTTCTCCCAGCTGATGAATTTGAGGTTTCGAGTAAACAAATTTTCCTAATCTTTCTGTTCAAGCGCCATCTAC,0.841
5,GATGATTGTTCTCCCAGCTGATGAATTCGAATGATCGAGTAAACAAATTTTCCTAATCTTTCTGTTCAAGCGCCATCTAC,0.366
6,GATGATTGTTCTCCCAGCTGATGAATTAAGTTAGTCGAGTAAACAAATTTTCCTAATCTTTCTGTTCAAGCGCCATCTAC,1.87
7,GATGATTGTTCTCCCAGCTGATGAATTCAGCATTTCGAGTAAACAAATTTTCCTAATCTTTCTGTTCAAGCGCCATCTAC,5.86
8,GATGATTGTTCTCCCAGCTGATGAATTCGAGCCATCGAGTAAACAAATTTTCCTAATCTTTCTGTTCAAGCGCCATCTAC,1.13
9,GATGATTGTTCTCCCAGCTGATGAATTCTAACCGTCGAGTAAACAAATTTTCCTAATCTTTCTGTTCAAGCGCCATCTAC,0.314
10,GATGATTGTTCTCCCAGCTGATGAATTTCATTCCTCGAGTAAACAAATTTTCCTAATCTTTCTGTTCAAGCGCCATCTAC,0.482
11,GATGATTGTTCTCCCAGCTGATGAATTCTCTAAGTCGAGTAAACAAATTTTCCTAATCTTTCTGTTCAAGCGCCATCTAC,0.192
12,GATGATTGTTCTCCCAGCTGATGAATTCTTCTCGTCGAGTAAACAAATTTTCCTAATCTTTCTGTTCAAGCGCCATCTAC,0.246
13,GATGATTGTTCTCCCAGCTGATGAATTTTCAGGGTCGAGTAAACAAATTTTCCTAATCTTTCTGTTCAAGCGCCATCTAC,0.188
14,GATGATTGTTCTCCCAGCTGATGAATTGTGACTTTCGAGTAAACAAATTTTCCTAATCTTTCTGTTCAAGCGCCATCTAC,2.08
15,GATGATTGTTCTCCCAGCTGATGAATTAGGCTCATCGAGTAAACAAATTTTCCTAATCTTTCTGTTCAAGCGCCATCTAC,0.683
16,GATGATTGTTCTCCCAGCTGATGAATTGCCACGATCGAGTAAACAAATTTTCCTAATCTTTCTGTTCAAGCGCCATCTAC,0.658
17,GATGATTGTTCTCCCAGCTGATGAATTCAGTAAATCGAGTAAACAAATTTTCCTAATCTTTCTGTTCAAGCGCCATCTAC,0.327
18,GATGATTGTTCTCCCAGCTGATGAATTTTGTCACTCGAGTAAACAAATTTTCCTAATCTTTCTGTTCAAGCGCCATCTAC,3.67
19,GATGATTGTTCTCCCAGCTGATGAATTAGTTTTCTCGAGTAAACAAATTTTCCTAATCTTTCTGTTCAAGCGCCATCTAC,4.62
20,GATGATTGTTCTCCCAGCTGATGAATTTGGTGACTCGAGTAAACAAATTTTCCTAATCTTTCTGTTCAAGCGCCATCTAC,1.57
21,GATGATTGTTCTCCCAGCTGATGAATTGCAATTTTCGAGTAAACAAATTTTCCTAATCTTTCTGTTCAAGCGCCATCTAC,1.59

row,Sequence,binding signal (RPM ratio (pull-down/input))
1,GATGATTGTTCTCCCAGCTGATGAATTCCCTTCATCGAGTAAACAAATTTTCCTAATCTTTCTGTTCAAGCGCCATCTAC,0.33
2,GATGATTGTTCTCCCAGCTGATGAATTGTGATCGTCGAGTAAACAAATTTTCCTAATCTTTCTGTTCAAGCGCCATCTAC,1.03
3,GATGATTGTTCTCCCAGCTGATGAATTGCCTTCTTCGAGTAAACAAATTTTCCTAATCTTTCTGTTCAAGCGCCATCTAC,0.882
4,GATGATTGTTCTCCCAGCTGATGAATTCCACAGGTCGAGTAAACAAATTTTCCTAATCTTTCTGTTCAAGCGCCATCTAC,0.209
5,GATGATTGTTCTCCCAGCTGATGAATTGTCGTTGTCGAGTAAACAAATTTTCCTAATCTTTCTGTTCAAGCGCCATCTAC,1.11
6,GATGATTGTTCTCCCAGCTGATGAATTACGATACTCGAGTAAACAAATTTTCCTAATCTTTCTGTTCAAGCGCCATCTAC,0.847
7,GATGATTGTTCTCCCAGCTGATGAATTATAAAATTCGAGTAAACAAATTTTCCTAATCTTTCTGTTCAAGCGCCATCTAC,0.28
8,GATGATTGTTCTCCCAGCTGATGAATTTGACCTCTCGAGTAAACAAATTTTCCTAATCTTTCTGTTCAAGCGCCATCTAC,0.499
9,GATGATTGTTCTCCCAGCTGATGAATTCCGTCCCTCGAGTAAACAAATTTTCCTAATCTTTCTGTTCAAGCGCCATCTAC,0.774
10,GATGATTGTTCTCCCAGCTGATGAATTGGTACTATCGAGTAAACAAATTTTCCTAATCTTTCTGTTCAAGCGCCATCTAC,0.703
11,GATGATTGTTCTCCCAGCTGATGAATTGCGGTACTCGAGTAAACAAATTTTCCTAATCTTTCTGTTCAAGCGCCATCTAC,0.981
12,GATGATTGTTCTCCCAGCTGATGAATTCGATGGGTCGAGTAAACAAATTTTCCTAATCTTTCTGTTCAAGCGCCATCTAC,1.24
13,GATGATTGTTCTCCCAGCTGATGAATTTTCTACTTCGAGTAAACAAATTTTCCTAATCTTTCTGTTCAAGCGCCATCTAC,0.267
14,GATGATTGTTCTCCCAGCTGATGAATTACGTACCTCGAGTAAACAAATTTTCCTAATCTTTCTGTTCAAGCGCCATCTAC,0.718
15,GATGATTGTTCTCCCAGCTGATGAATTTAGCCAATCGAGTAAACAAATTTTCCTAATCTTTCTGTTCAAGCGCCATCTAC,0.774
16,GATGATTGTTCTCCCAGCTGATGAATTACAGACATCGAGTAAACAAATTTTCCTAATCTTTCTGTTCAAGCGCCATCTAC,0.5
17,GATGATTGTTCTCCCAGCTGATGAATTCGGCAAGTCGAGTAAACAAATTTTCCTAATCTTTCTGTTCAAGCGCCATCTAC,1.34
18,GATGATTGTTCTCCCAGCTGATGAATTTCCGCATTCGAGTAAACAAATTTTCCTAATCTTTCTGTTCAAGCGCCATCTAC,6.24
19,GATGATTGTTCTCCCAGCTGATGAATTGTGAGAGTCGAGTAAACAAATTTTCCTAATCTTTCTGTTCAAGCGCCATCTAC,0.48
20,GATGATTGTTCTCCCAGCTGATGAATTGATCTAGTCGAGTAAACAAATTTTCCTAATCTTTCTGTTCAAGCGCCATCTAC,0.257
21,GATGATTGTTCTCCCAGCTGATGAATTTTCAGAATCGAGTAAACAAATTTTCCTAATCTTTCTGTTCAAGCGCCATCTAC,0.168

row,Sequence,binding signal (RPM ratio (pull-down/input))
1,GATGATTGTTCTCCCAGCTGATGAATTCCTGAGTTCGAGTAAACAAATTTTCCTAATCTTTCTGTTCAAGCGCCATCTAC,0.348
2,GATGATTGTTCTCCCAGCTGATGAATTTAAGAGATCGAGTAAACAAATTTTCCTAATCTTTCTGTTCAAGCGCCATCTAC,0.24
3,GATGATTGTTCTCCCAGCTGATGAATTTCACCTATCGAGTAAACAAATTTTCCTAATCTTTCTGTTCAAGCGCCATCTAC,0.392
4,GATGATTGTTCTCCCAGCTGATGAATTATAACAGTCGAGTAAACAAATTTTCCTAATCTTTCTGTTCAAGCGCCATCTAC,0.592
5,GATGATTGTTCTCCCAGCTGATGAATTGTAATTCTCGAGTAAACAAATTTTCCTAATCTTTCTGTTCAAGCGCCATCTAC,0.973
6,GATGATTGTTCTCCCAGCTGATGAATTACATCTATCGAGTAAACAAATTTTCCTAATCTTTCTGTTCAAGCGCCATCTAC,0.703
7,GATGATTGTTCTCCCAGCTGATGAATTACCGTTTTCGAGTAAACAAATTTTCCTAATCTTTCTGTTCAAGCGCCATCTAC,0.571
8,GATGATTGTTCTCCCAGCTGATGAATTACGTTATTCGAGTAAACAAATTTTCCTAATCTTTCTGTTCAAGCGCCATCTAC,2.14
9,GATGATTGTTCTCCCAGCTGATGAATTGCACCAATCGAGTAAACAAATTTTCCTAATCTTTCTGTTCAAGCGCCATCTAC,0.831
10,GATGATTGTTCTCCCAGCTGATGAATTGTGTTTGTCGAGTAAACAAATTTTCCTAATCTTTCTGTTCAAGCGCCATCTAC,8.45
11,GATGATTGTTCTCCCAGCTGATGAATTCGATACTTCGAGTAAACAAATTTTCCTAATCTTTCTGTTCAAGCGCCATCTAC,0.588
12,GATGATTGTTCTCCCAGCTGATGAATTAGTAGCTTCGAGTAAACAAATTTTCCTAATCTTTCTGTTCAAGCGCCATCTAC,1.26
13,GATGATTGTTCTCCCAGCTGATGAATTAGATCATTCGAGTAAACAAATTTTCCTAATCTTTCTGTTCAAGCGCCATCTAC,0.534
14,GATGATTGTTCTCCCAGCTGATGAATTGGTTGTATCGAGTAAACAAATTTTCCTAATCTTTCTGTTCAAGCGCCATCTAC,3.71
15,GATGATTGTTCTCCCAGCTGATGAATTACAGGGATCGAGTAAACAAATTTTCCTAATCTTTCTGTTCAAGCGCCATCTAC,0.32
16,GATGATTGTTCTCCCAGCTGATGAATTGACCTTTTCGAGTAAACAAATTTTCCTAATCTTTCTGTTCAAGCGCCATCTAC,0.29
17,GATGATTGTTCTCCCAGCTGATGAATTTTTAATCTCGAGTAAACAAATTTTCCTAATCTTTCTGTTCAAGCGCCATCTAC,0.267
18,GATGATTGTTCTCCCAGCTGATGAATTCGGCCCTTCGAGTAAACAAATTTTCCTAATCTTTCTGTTCAAGCGCCATCTAC,0.868
19,GATGATTGTTCTCCCAGCTGATGAATTCACTACGTCGAGTAAACAAATTTTCCTAATCTTTCTGTTCAAGCGCCATCTAC,0.332
20,GATGATTGTTCTCCCAGCTGATGAATTGACGCCGTCGAGTAAACAAATTTTCCTAATCTTTCTGTTCAAGCGCCATCTAC,0.801
21,GATGATTGTTCTCCCAGCTGATGAATTATAAAGCTCGAGTAAACAAATTTTCCTAATCTTTCTGTTCAAGCGCCATCTAC,0.289
